# This is one part of the list. These are further read-outs of the screen, such as a control signal, another cell line or another target. No call is given for them.
# How the values were obtained:
# Experiment in all cases: Primary Screen for Target Class Profiling of Small Molecule Inhibitors of Methyltransferases
# [1] = molecular target: Glycine N-methyltransferase (Homo sapiens) (UniProt Q14749); settings: purified enzyme, MTase-Glo SAH luminescence; measured here: GNMT inhibition; at 40 µM; stronger effect = lower value
# Summary of the method: (§1)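 Each enzyme was reacted with SAM and its substrate, with compounds tested once at 40 uM; SAH formed was read by MTase-Glo luminescence.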
# [2] = molecular target: Guanidinoacetate N-methyltransferase (Homo sapiens) (UniProt Q14353); settings: purified enzyme, MTase-Glo SAH luminescence; measured here: GAMT inhibition; at 40 µM; stronger effect = lower value
# Summary of the method: as §1
# [3] = molecular target: Histamine N-methyltransferase (Homo sapiens) (UniProt P50135); settings: purified enzyme, MTase-Glo SAH luminescence; measured here: HNMT inhibition; at 40 µM; stronger effect = lower value
# Summary of the method: as §1
# [4] = molecular target: Nicotinamide N-methyltransferase (Homo sapiens) (UniProt P40261); settings: purified enzyme, MTase-Glo SAH luminescence; measured here: NNMT inhibition; at 40 µM; stronger effect = lower value
# Summary of the method: as §1
# [5] = molecular target: Phenylethanolamine N-methyltransferase (Homo sapiens) (UniProt P11086); settings: purified enzyme, MTase-Glo SAH luminescence; measured here: PNMT inhibition; at 40 µM; stronger effect = lower value
# Summary of the method: as §1
# On the % scale 0 is the no-effect control and ±100 the full control effect.
SMILES,"activity change, negative = inhibition [1]","activity change, negative = inhibition [2]","activity change, negative = inhibition [3]","activity change, negative = inhibition [4]","activity change, negative = inhibition [5]"
Cc1ccc(C(=O)N2CCC3(CC2)CC(c2ccccc2)C(=O)N3C)s1 (centres undefined),-0.085%,-2.93%,2.66%,-0.947%,-10.8%
Cc1ccc(C(=O)Nc2ccc(Oc3cc4cnn(C)c4cc3-c3cn[nH]c3)c(F)c2)c(=O)n1-c1ccc(F)cc1,4.92%,-11.6%,-10.1%,-34%,4.49%
N#CCNC(=O)c1ccc(-c2ccnc(Nc3ccc(N4CCOCC4)cc3)n2)cc1,-43%,-3.26%,0.68%,-11.7%,-0.022%
Cc1ccc(N2C(=O)c3cc(C4CC4)nn3CC2(C)C(=O)NC2CCCCCC2)cc1Cl (centres undefined),-5.18%,2.59%,0.93%,-6.08%,0.323%
CC(C)CCn1c(=O)c2ccc(C(=O)NCC(C)C)cc2n2c(=O)n(CC(N)=O)nc12,-4.12%,1.97%,-1.61%,-19.6%,-7.55%
CC(C(=O)N1CCCCC1)n1ccc2cc(S(=O)(=O)N3CCCC3)ccc21 (centres undefined),4.35%,7.96%,2.98%,0.706%,1.46%
CN(C)C[C@@H]1CN(c2ncccn2)C[C@H]1NS(=O)(=O)c1cccnc1,1.11%,-2.49%,0.339%,0.958%,1.21%
CCOC(=O)c1cc2n(n1)CC(C)(C(=O)NCc1ccccc1)N(c1ccc(C)c(C)c1)C2=O (centres undefined),-4.27%,3.28%,-1.23%,-4.35%,-4.72%
Cc1nn(C)c(C)c1-c1nc2cc(S(=O)(=O)N3CCCC3)ccc2n1C,-5.06%,-6.41%,-2.15%,-10.2%,-4.03%
Cc1nc2c(NC3CCN(C(=O)c4cnccn4)CC3)cccn2n1,-5.32%,0.069%,-1.88%,-2.72%,-2.79%
CN(Cc1ccc(OC(F)(F)F)cc1)Cc1ccccc1C(F)(F)F,-0.032%,0.805%,1.19%,-2.81%,5.59%
Cc1ccc(S(=O)(=O)c2nnn3c2nc(N2CCN(c4ccccn4)CC2)c2ccccc23)cc1C,-2.46%,1.3%,-4.61%,-2.81%,-0.678%
CCCn1c(=O)c2ccc(C(=O)NC3CCCCC3)cc2n2c(=O)n(Cc3ccccc3)nc12,5.41%,1.33%,8.08%,7.49%,7.62%
CN(CCc1ccc(Nc2ncc(-c3cccnc3)s2)cc1)Cc1ccccc1,-16.7%,1.44%,-59.3%,-64.2%,-9.61%
CCCNC(=O)N1Cc2c(sc3c2CCCC3)-n2cccc2C1c1cccc(OCC)c1 (centres undefined),-3.41%,4.32%,-2.37%,-4.21%,1.22%
Cn1c2c(c3ccccc31)C(C(=O)NCc1ccc(F)cc1)N(c1cccc(Cl)c1)C(=O)CS2 (centres undefined),-1.9%,0.004%,10.1%,7.58%,5.8%
CC1CC(O)C2(OC1=O)OC1C(O)C3C4CCC5CC(OC6OC(CO)C(O)C(O)C6OC6OC(C)C(O)C(O)C6O)CCC5(C)C4CCC3(C)C1C2C (centres undefined),1.7%,-7.15%,7.92%,-19.5%,1.69%
CC1(C(=O)NC2CCCC2)Cn2c(nc3ccccc32)C(=O)N1Cc1ccco1 (centres undefined),2.8%,0.59%,5.42%,2.14%,0.743%
Cc1ccc(CN2C(=O)c3cc4ccccc4n3CC2(C)C(=O)NC2CCCCC2)cc1 (centres undefined),-3.95%,4.25%,1.6%,-11.3%,-4.06%
CCC1C(=O)N(C)c2cnc(Nc3ccc(C(=O)NC4CCN(C)CC4)cc3OC)nc2N1C1CCCC1 (centres undefined),-35.9%,-14.7%,-59.2%,-58.9%,-38%

SMILES,"activity change, negative = inhibition [1]","activity change, negative = inhibition [2]","activity change, negative = inhibition [3]","activity change, negative = inhibition [4]","activity change, negative = inhibition [5]"
CC1(C(=O)NC2CCCCCC2)Cn2c(cc3sccc32)C(=O)N1CC1CCCO1 (centres undefined),-4.89%,4.72%,1.99%,-4.93%,-3.96%
CN1CC[C@@H](NC(=O)Nc2ccc(C#N)cc2)C[C@@H]1c1nc2ccccc2[nH]1,-0.372%,8.38%,11.9%,-12.2%,5.05%
CO[C@H]1[C@H](NC(=O)c2ccc(C)c(O)c2)c2ccccc2C12CCNCC2,-3.92%,-3.72%,-0.215%,-8.67%,-2.44%
CCC1(C(=O)NCCCN2CCCC2=O)CCCCC(=O)N1 (centres undefined),-0.674%,0.721%,1.26%,-3.94%,-0.822%
CC(C)c1ccc(N2CC(C(=O)N(C)C3CCSCC3)CC2=O)cc1 (centres undefined),-9.2%,-5.62%,-4.64%,-7.49%,-6.03%
O=C(NCc1ccc2c(c1)OCO2)c1ccc2c(=O)nc3c(-c4ccc(Cl)cc4)n[nH]n3c2c1,-5.61%,0%,1.41%,-8.82%,-5.54%
CCCCNc1ncc2c(-c3ccc(F)cc3)nn(CC3CCC(N)CC3)c2n1 (centres undefined),-8.17%,4.49%,-12.4%,-15.2%,-3.73%
N#Cc1ccc(-c2csc(NN=C3CCCC3)n2)cc1,-70.6%,–,-9.29%,0.848%,25.1%
Cc1cc2c(cc3n2CC(C)(C(=O)NC2CCCCCC2)N(CCCN2CCCCC2)C3=O)o1 (centres undefined),7.35%,0.385%,-0.631%,1.34%,3.37%
CCn1cc(CN2CC[C@H](CNC(=O)COC)[C@H](N(C)C)C2)c(C)n1,-0.073%,0.625%,0.647%,-0.989%,-11.9%
O=C(/C=C/c1ccc(O)cc1)c1ccc(O)cc1O,-10.8%,2.7%,0.176%,-11.1%,-3.48%
CC(C(N)=O)N1CCn2nc(CCC(=O)N3CCOCC3)cc2C1 (centres undefined),-0.729%,-0.236%,-0.136%,1.48%,0.672%
COc1cccc(Nc2nn3c(=O)c4ccc(C(=O)NCc5ccccn5)cc4nc3s2)c1,-8.87%,3.32%,2.49%,1.16%,-1.21%
Cc1ccc(CNC(=O)C2(C)Cn3nc(C(=O)NCc4ccco4)cc3C(=O)N2C)cc1 (centres undefined),2.45%,2.93%,3.62%,1.33%,3.67%
Cc1nn(C)c2c(=O)n(CC(=O)N3CCN(c4ccccn4)CC3)ccc12,6.76%,2.36%,12.6%,5.49%,6.48%
CN1C(=O)CC(C(=O)O)C12CCN(Cc1cccc(Cn3cccn3)c1)CC2 (centres undefined),-2.25%,-7.49%,-2.75%,-12.4%,-7.8%
CC(C)Cn1c(=O)c2ccccc2n2c(CCC(=O)Nc3ccccc3)nnc12,-7.65%,-2.16%,-6.93%,-6.08%,-11.1%
CCOc1ccc(CCN2C(=O)c3ccc(-c4ccco4)n3CC2(C)C(=O)NCc2ccccc2)cc1 (centres undefined),-5%,3.88%,-5.29%,-6.9%,-5.24%
CCn1ccc2oc(C)c(C(=O)N3CCN(c4cccc(C)c4C)CC3)c2c1=O,-3.59%,1.62%,-0.064%,-2.84%,2.63%
